# Some of the results follow.
# B1: Surfactant Protein D (Human); Neck + Carbohydrate Recognition Domain (NCRD) (Homo sapiens) (protein)
# chain: MLLFLLSALVLLTQPLGYLEAEMKTYSHRTMPSACTLVMCSSVESGLPGRDRDGREGPRGEKGDPGLPGAAGQAGMPGQAGPVGPKGDNGSVGEPGPKGDTGPSGPPGPPGVPGPAGREGALGKQGNIGPQGKPGPKGEAGPKGEVGAPGMQGSAGARGLAGPKGERGVPGERGVPGNTGAAGSAGAMGPQGSPGARGPPGLKGDKGIPGDKGAKGESGLPDVASLRQQVEALQGQVQHLQAAFSQYKKVELFPNGQSVGEKIFKTAQFVKPFTEAQLLCTQAGGQLASPRSAAENAALQQLVVAKNEAAFLSMTDSKTEGKFTYPTGESLVYSNWAPGEPNDAGGSEDCVEIFTNGKWNDRACGEKRLVVCEF
# Columns and labels:
# Assay in all cases: glycan array binding signal (z-score within array); higher = stronger binding
# Conditions in all cases: glycan notation: IUPAC condensed, linker removed; mutation: D325A
# GlcA(b1-3)GlcNAc = biological target: GlcA(b1-3)GlcNAc
# How it was run: (§1)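 The Consortium for Functional Glycomics database supplied 3228 glycan arrays, of which those lacking an available protein sequence were dropped. The binding signal, a within-array Z-score, was averaged across arrays of the same protein sequence and across linkers. Negative scores can be read as non-binding.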
# GlcA(b1-6)Gal = biological target: GlcA(b1-6)Gal
# How it was run: as §1
# [1] = biological target: GlcNAc(a1-3)Gal(b1-4)GlcNAc
# How it was run: as §1
# [2] = biological target: GlcNAc(a1-6)Gal(b1-4)GlcNAc
# How it was run: as §1
# [3] = biological target: GlcNAc(b1-2)Gal(b1-3)GalNAc
# How it was run: as §1
# [4] = biological target: GlcNAc(b1-2)Man(a1-3)[GlcNAc(b1-2)Man(a1-6)]Man(b1-4)GlcNAc(b1-4)GlcNAc
# How it was run: as §1
# GlcNAc(b1-3)Gal = biological target: GlcNAc(b1-3)Gal
# How it was run: as §1
# [5] = biological target: GlcNAc(b1-3)Gal(b1-3)GalNAc
# How it was run: as §1
# GlcNAc(b1-3)Gal(b1-4)Glc = biological target: GlcNAc(b1-3)Gal(b1-4)Glc
# How it was run: as §1
# [6] = biological target: GlcNAc(b1-3)Gal(b1-4)GlcNAc
# How it was run: as §1
# [7] = biological target: GlcNAc(b1-3)Gal(b1-4)GlcNAc(b1-3)Gal(b1-4)GlcNAc
# How it was run: as §1
# GlcNAc(b1-3)GalNAc = biological target: GlcNAc(b1-3)GalNAc
# How it was run: as §1
# GlcNAc(b1-3)Man = biological target: GlcNAc(b1-3)Man
# How it was run: as §1
# [8] = biological target: GlcNAc(b1-3)[GlcNAc(b1-4)][GlcNAc(b1-6)]GlcNAc
# How it was run: as §1
# [9] = biological target: GlcNAc(b1-3)[GlcNAc(b1-6)]Gal(b1-4)GlcNAc
# How it was run: as §1
# [10] = biological target: GlcNAc(b1-3)[GlcNAc(b1-6)]GalNAc
# How it was run: as §1
# [11] = biological target: GlcNAc(b1-4)Gal(b1-4)GlcNAc
# How it was run: as §1
# GlcNAc(b1-4)GlcNAc = biological target: GlcNAc(b1-4)GlcNAc
# How it was run: as §1
# [12] = biological target: GlcNAc(b1-4)GlcNAc(b1-4)GlcNAc
# How it was run: as §1
# [13] = biological target: GlcNAc(b1-4)GlcNAc(b1-4)GlcNAc(b1-4)GlcNAc(b1-4)GlcNAc
# How it was run: as §1
# [14] = biological target: GlcNAc(b1-4)GlcNAc(b1-4)GlcNAc(b1-4)GlcNAc(b1-4)GlcNAc(b1-4)GlcNAc
# How it was run: as §1
# [15] = biological target: GlcNAc(b1-4)[GlcNAc(b1-6)]GalNAc
# How it was run: as §1
# [16] = biological target: GlcNAc(b1-6)Gal(b1-4)GlcNAc
# How it was run: as §1
# GlcNAc(b1-6)GalNAc = biological target: GlcNAc(b1-6)GalNAc
# How it was run: as §1
# GlcNAc3Prop(b1-4)GlcNAc = biological target: GlcNAc3Prop(b1-4)GlcNAc
# How it was run: as §1
# Kdn(a2-3)Gal(b1-3)GlcNAc = biological target: Kdn(a2-3)Gal(b1-3)GlcNAc
# How it was run: as §1
# Kdn(a2-3)Gal(b1-4)GlcNAc = biological target: Kdn(a2-3)Gal(b1-4)GlcNAc
# How it was run: as §1
# [17] = biological target: Man(a1-2)Man(a1-2)Man(a1-3)Man
# How it was run: as §1
# [18] = biological target: Man(a1-2)Man(a1-2)Man(a1-6)[Man(a1-3)]Man
# How it was run: as §1
# Man(a1-2)Man(a1-3)Man = biological target: Man(a1-2)Man(a1-3)Man
# How it was run: as §1
# [19] = biological target: Man(a1-2)Man(a1-3)[Man(a1-2)Man(a1-6)]Man
# How it was run: as §1
# [20] = biological target: Man(a1-2)Man(a1-3)[Man(a1-2)Man(a1-6)]Man(a1-6)[Man(a1-2)Man(a1-2)Man(a1-3)]Man
# How it was run: as §1
# [21] = biological target: Man(a1-2)Man(a1-3)[Man(a1-2)Man(a1-6)]Man(a1-6)[Man(a1-2)Man(a1-2)Man(a1-3)]Man(b1-4)GlcNAc(b1-4)GlcNAc
# How it was run: as §1
# [22] = biological target: Man(a1-2)Man(a1-3)[Man(a1-6)]Man(a1-6)[Man(a1-2)Man(a1-3)]Man(b1-4)GlcNAc(b1-4)GlcNAc
# How it was run: as §1
# [23] = biological target: Man(a1-2)Man(a1-6)[Man(a1-3)]Man(a1-6)[Man(a1-2)Man(a1-2)Man(a1-3)]Man
# How it was run: as §1
# [24] = biological target: Man(a1-2)Man(a1-6)[Man(a1-3)]Man(a1-6)[Man(a1-2)Man(a1-2)Man(a1-3)]Man(b1-4)GlcNAc(b1-4)GlcNAc
# How it was run: as §1
# Man(a1-3)[Man(a1-6)]Man = biological target: Man(a1-3)[Man(a1-6)]Man
# How it was run: as §1
binder,measurement,setting,value
B1,glycan array binding signal (z-score),GlcA(b1-3)GlcNAc,-0.257
same,glycan array binding signal (z-score),GlcA(b1-6)Gal,-0.26
same,glycan array binding signal (z-score),[1],-0.255
same,glycan array binding signal (z-score),[2],-0.271
same,glycan array binding signal (z-score),[3],-0.277
same,glycan array binding signal (z-score),[4],2.67
same,glycan array binding signal (z-score),GlcNAc(b1-3)Gal,-0.271
same,glycan array binding signal (z-score),[5],-0.256
same,glycan array binding signal (z-score),GlcNAc(b1-3)Gal(b1-4)Glc,-0.259
same,glycan array binding signal (z-score),[6],-0.269
same,glycan array binding signal (z-score),[7],-0.253
same,glycan array binding signal (z-score),GlcNAc(b1-3)GalNAc,-0.267
same,glycan array binding signal (z-score),GlcNAc(b1-3)Man,-0.275
same,glycan array binding signal (z-score),[8],0.662
same,glycan array binding signal (z-score),[9],0.163
same,glycan array binding signal (z-score),[10],-0.171
same,glycan array binding signal (z-score),[11],-0.128
same,glycan array binding signal (z-score),GlcNAc(b1-4)GlcNAc,-0.265
same,glycan array binding signal (z-score),[12],-0.253
same,glycan array binding signal (z-score),[13],-0.239
same,glycan array binding signal (z-score),[14],-0.274
same,glycan array binding signal (z-score),[15],-0.031
same,glycan array binding signal (z-score),[16],-0.26
same,glycan array binding signal (z-score),GlcNAc(b1-6)GalNAc,-0.264
same,glycan array binding signal (z-score),GlcNAc3Prop(b1-4)GlcNAc,-0.252
same,glycan array binding signal (z-score),Kdn(a2-3)Gal(b1-3)GlcNAc,-0.246
same,glycan array binding signal (z-score),Kdn(a2-3)Gal(b1-4)GlcNAc,-0.26
same,glycan array binding signal (z-score),[17],5.67
same,glycan array binding signal (z-score),[18],4.19
same,glycan array binding signal (z-score),Man(a1-2)Man(a1-3)Man,1.8
same,glycan array binding signal (z-score),[19],3.81
same,glycan array binding signal (z-score),[20],5.16
same,glycan array binding signal (z-score),[21],4.21
same,glycan array binding signal (z-score),[22],4.58
same,glycan array binding signal (z-score),[23],4.8
same,glycan array binding signal (z-score),[24],4.37
same,glycan array binding signal (z-score),Man(a1-3)[Man(a1-6)]Man,0.213

# — the supplement of paper PMC8728848
